In PMC4466887:
These are yes or no findings as the source states them, for the method shown. In cells and extracts the contact can be indirect. Some binding calls cover weakened binding; strength is not graded here. For part of these data: Where a sequence is shown, tags or fusion partners need not be part of it.

By UniProt entry, the sequences of proteins in these tests, tags left out.
UniProt Q99836: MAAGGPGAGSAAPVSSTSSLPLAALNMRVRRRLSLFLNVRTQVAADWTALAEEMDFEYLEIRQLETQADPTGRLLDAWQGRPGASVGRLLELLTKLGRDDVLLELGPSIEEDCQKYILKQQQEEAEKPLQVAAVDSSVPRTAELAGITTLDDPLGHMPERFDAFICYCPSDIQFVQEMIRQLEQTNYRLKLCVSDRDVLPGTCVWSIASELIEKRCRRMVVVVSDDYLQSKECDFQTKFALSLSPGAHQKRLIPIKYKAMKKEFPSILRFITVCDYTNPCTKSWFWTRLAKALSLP
UniProt O43734: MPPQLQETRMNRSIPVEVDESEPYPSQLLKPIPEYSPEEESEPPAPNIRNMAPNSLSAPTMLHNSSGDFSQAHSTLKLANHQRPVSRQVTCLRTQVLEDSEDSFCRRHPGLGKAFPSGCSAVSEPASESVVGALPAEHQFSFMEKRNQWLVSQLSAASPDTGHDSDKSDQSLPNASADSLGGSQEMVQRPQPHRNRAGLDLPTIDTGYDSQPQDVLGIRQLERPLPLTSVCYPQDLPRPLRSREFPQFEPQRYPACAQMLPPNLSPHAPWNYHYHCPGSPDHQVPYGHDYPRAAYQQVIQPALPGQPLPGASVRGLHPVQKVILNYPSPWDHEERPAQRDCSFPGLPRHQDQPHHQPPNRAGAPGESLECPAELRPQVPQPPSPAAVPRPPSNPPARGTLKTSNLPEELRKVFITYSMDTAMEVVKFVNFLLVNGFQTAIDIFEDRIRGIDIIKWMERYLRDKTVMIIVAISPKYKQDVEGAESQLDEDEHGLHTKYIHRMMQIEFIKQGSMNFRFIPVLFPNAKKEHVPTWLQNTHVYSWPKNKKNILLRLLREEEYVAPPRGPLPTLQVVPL

How the values were obtained:
flag-tagged IL-17R = biological target: T1, flag-tagged IL-17R (UniProt Q96F46); assay: co-IP; 16HBE14o cells transfected with flag-tagged IL-17R or MyD88, pre-conditioned with saline for 24 hours, PL for 30 mins; interactions fixed in cells with a cross-linker (DSP in the methods, DSS in the results); RIPA lysate on flag capture resin, eluted with 3X flag peptide; western blot
T1 sequence: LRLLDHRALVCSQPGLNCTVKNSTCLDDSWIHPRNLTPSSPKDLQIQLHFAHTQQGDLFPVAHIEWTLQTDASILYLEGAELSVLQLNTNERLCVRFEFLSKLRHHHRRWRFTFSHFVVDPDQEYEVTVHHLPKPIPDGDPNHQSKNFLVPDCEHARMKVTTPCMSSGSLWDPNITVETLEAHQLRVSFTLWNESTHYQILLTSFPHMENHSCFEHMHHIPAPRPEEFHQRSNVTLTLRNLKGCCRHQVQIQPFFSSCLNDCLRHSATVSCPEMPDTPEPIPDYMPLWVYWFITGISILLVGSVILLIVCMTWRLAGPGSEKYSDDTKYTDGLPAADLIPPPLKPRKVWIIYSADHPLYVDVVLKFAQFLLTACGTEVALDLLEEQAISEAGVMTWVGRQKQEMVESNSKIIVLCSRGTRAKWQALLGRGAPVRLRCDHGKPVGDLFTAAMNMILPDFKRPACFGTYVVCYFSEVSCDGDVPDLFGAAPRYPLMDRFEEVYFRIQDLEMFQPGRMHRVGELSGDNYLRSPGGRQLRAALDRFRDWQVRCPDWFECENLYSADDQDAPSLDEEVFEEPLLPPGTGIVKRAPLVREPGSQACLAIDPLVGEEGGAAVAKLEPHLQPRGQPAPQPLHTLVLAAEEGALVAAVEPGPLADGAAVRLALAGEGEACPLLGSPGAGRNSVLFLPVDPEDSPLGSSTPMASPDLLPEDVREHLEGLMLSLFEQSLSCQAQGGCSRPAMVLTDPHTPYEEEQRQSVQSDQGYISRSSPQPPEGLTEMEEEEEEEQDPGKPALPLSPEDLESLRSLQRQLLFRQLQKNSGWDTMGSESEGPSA

[1] = biological target: MyD88 (myeloid differentiation factor 88) (human (endogenous in 16HBE14o)) (UniProt Q99836); assay: condition: only cells pre-conditioned with 1 μM morphine for 24 hours; proximity ligation; as a3, but cells pre-conditioned with 1 μM morphine for 24 hours
flag-tagged MyD88 = flag-tagged MyD88 (UniProt Q99836); assay: co-IP; 16HBE14o cells transfected with flag-tagged IL-17R or MyD88, pre-conditioned with saline for 24 hours, PL for 30 mins; interactions fixed in cells with a cross-linker (DSP in the methods, DSS in the results); RIPA lysate on flag capture resin, eluted with 3X flag peptide; western blot
[2] = biological target: MyD88 (myeloid differentiation factor 88) (human (endogenous in 16HBE14o)) (UniProt Q99836); assay: proximity ligation; 16HBE14o cells pre-conditioned with saline for 24 hours, treated with 20 nM recombinant IL-17 or 1 μg/ml PL for 15, 30 and 60 minutes; fixed with 10% formalin, permeabilised; primary antibody pairs IL-17R-Act1 or MyD88-Act1 and PLA probes (Olink)
[3] = biological target: T2, IL-17A receptor (IL-17R) (human (endogenous in 16HBE14o)) (UniProt Q96F46); assay: as above
T2 sequence: T1 sequence

Substance	binding (flag-tagged IL-17R)	binding [1]	binding (flag-tagged MyD88)	binding [2]	binding [3]
MyD88 (myeloid differentiation factor 88) (from UniProt Q99836 1-296)	binds	–	–	–	–
Act1/CIKS (from UniProt O43734 1-574)	binds	no binding	binds	binds	binds
